# Laboratory results reported in PMC9911399, “Two distinct binding modes provide the RNA-binding protein RbFox with extraordinary sequence specificity”.
# Where a chain is given by its changes, count along the chain named. This is one part of the list.
# T1: RBFOX1 RRM RbFoxmut (Fox-RRM*) (Homo sapiens, UniProt Q9NWB1 109-208, R118D;E147R;N151S;E152T)
# T1 sequence: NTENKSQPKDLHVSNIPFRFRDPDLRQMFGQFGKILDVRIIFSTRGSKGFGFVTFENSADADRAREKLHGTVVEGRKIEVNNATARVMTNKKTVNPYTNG
# B1: GAGUGAG (DNA:RNA)
# RNA: GGGAGACCGGAAUUCAGAUUGUCCGAGUGAGUUAAAUCCCGUCGUAGCCACCA
# DNA 1: CAATCTGAATTCCGGTCTCCC
# DNA 2: TGGTGGCTACGACGGGATT
# B2: UGUUUGU (DNA:RNA)
# RNA: B1 RNA with G25U, A26G, G27U, G29U, A30G, G31U
# DNA 1: CAATCTGAATTCCGGTCTCCC
# DNA 2: TGGTGGCTACGACGGGATT
# B3: UCGGGUU (DNA:RNA)
# RNA: B1 RNA with G25U, A26C, U28G, A30U, G31U
# DNA 1: CAATCTGAATTCCGGTCTCCC
# DNA 2: TGGTGGCTACGACGGGATT
# B4: AACGAAG (DNA:RNA)
# RNA: B1 RNA with G25A, G27C, U28G, G29A
# DNA 1: CAATCTGAATTCCGGTCTCCC
# DNA 2: TGGTGGCTACGACGGGATT
# B5: GAUAUCG (DNA:RNA)
# RNA: B1 RNA with G27U, U28A, G29U, A30C
# DNA 1: CAATCTGAATTCCGGTCTCCC
# DNA 2: TGGTGGCTACGACGGGATT
# B6: ACGUGUG (DNA:RNA)
# RNA: B1 RNA with G25A, A26C, A30U
# DNA 1: CAATCTGAATTCCGGTCTCCC
# DNA 2: TGGTGGCTACGACGGGATT
# B7: ACGGUAG (DNA:RNA)
# RNA: B1 RNA with G25A, A26C, U28G, G29U
# DNA 1: CAATCTGAATTCCGGTCTCCC
# DNA 2: TGGTGGCTACGACGGGATT
# B8: UAUCGUU (DNA:RNA)
# RNA: B1 RNA with G25U, G27U, U28C, A30U, G31U
# DNA 1: CAATCTGAATTCCGGTCTCCC
# DNA 2: TGGTGGCTACGACGGGATT
# B9: CACUAGA (DNA:RNA)
# RNA: B1 RNA with G25C, G27C, G29A, A30G, G31A
# DNA 1: CAATCTGAATTCCGGTCTCCC
# DNA 2: TGGTGGCTACGACGGGATT
# B10: UGCGCGU (DNA:RNA)
# RNA: GGGAGACCGGAAUUCAGAUUGUCCUGCGCGUUUAAAUCCCGUCGUAGCCACCA
# DNA 1: CAATCTGAATTCCGGTCTCCC
# DNA 2: TGGTGGCTACGACGGGATT
# B11: AGGCACA (DNA:RNA)
# RNA: B1 RNA with G25A, A26G, U28C, G29A, A30C, G31A
# DNA 1: CAATCTGAATTCCGGTCTCCC
# DNA 2: TGGTGGCTACGACGGGATT
# B12: GCCUGGG (DNA:RNA)
# RNA: B1 RNA with A26C, G27C, A30G
# DNA 1: CAATCTGAATTCCGGTCTCCC
# DNA 2: TGGTGGCTACGACGGGATT
# B13: CUUAGCG (DNA:RNA)
# RNA: B1 RNA with G25C, A26U, G27U, U28A, A30C
# DNA 1: CAATCTGAATTCCGGTCTCCC
# DNA 2: TGGTGGCTACGACGGGATT
# B14: AUGUUAA (DNA:RNA)
# RNA: B1 RNA with G25A, A26U, G29U, G31A
# DNA 1: CAATCTGAATTCCGGTCTCCC
# DNA 2: TGGTGGCTACGACGGGATT
# B15: CCUGAUG (DNA:RNA)
# RNA: B1 RNA with G25C, A26C, G27U, U28G, G29A, A30U
# DNA 1: CAATCTGAATTCCGGTCTCCC
# DNA 2: TGGTGGCTACGACGGGATT
# B16: AUCCACA (DNA:RNA)
# RNA: B10 RNA with U25A, G26U, G28C, C29A, G30C, U31A
# DNA 1: CAATCTGAATTCCGGTCTCCC
# DNA 2: TGGTGGCTACGACGGGATT
# B17: UGGAGCU (DNA:RNA)
# RNA: B10 RNA with C27G, G28A, C29G, G30C
# DNA 1: CAATCTGAATTCCGGTCTCCC
# DNA 2: TGGTGGCTACGACGGGATT
# B18: CCAUUCA (DNA:RNA)
# RNA: B1 RNA with G25C, A26C, G27A, G29U, A30C, G31A
# DNA 1: CAATCTGAATTCCGGTCTCCC
# DNA 2: TGGTGGCTACGACGGGATT
# B19: AGAGUGG (DNA:RNA)
# RNA: B10 RNA with U25A, C27A, C29U, U31G
# DNA 1: CAATCTGAATTCCGGTCTCCC
# DNA 2: TGGTGGCTACGACGGGATT
# B20: CGAGGAA (DNA:RNA)
# RNA: B1 RNA with G25C, A26G, G27A, U28G, G31A
# DNA 1: CAATCTGAATTCCGGTCTCCC
# DNA 2: TGGTGGCTACGACGGGATT
# B21: CAUUUCG (DNA:RNA)
# RNA: B1 RNA with G25C, G27U, G29U, A30C
# DNA 1: CAATCTGAATTCCGGTCTCCC
# DNA 2: TGGTGGCTACGACGGGATT
# B22: AUGUUCA (DNA:RNA)
# RNA: B1 RNA with G25A, A26U, G29U, A30C, G31A
# DNA 1: CAATCTGAATTCCGGTCTCCC
# DNA 2: TGGTGGCTACGACGGGATT
# B23: AGGCCCU (DNA:RNA)
# RNA: B10 RNA with U25A, C27G, G28C, G30C
# DNA 1: CAATCTGAATTCCGGTCTCCC
# DNA 2: TGGTGGCTACGACGGGATT
# B24: AUUGGUU (DNA:RNA)
# RNA: B10 RNA with U25A, G26U, C27U, C29G, G30U
# DNA 1: CAATCTGAATTCCGGTCTCCC
# DNA 2: TGGTGGCTACGACGGGATT
# B25: CGUGCUC (DNA:RNA)
# RNA: B10 RNA with U25C, C27U, G30U, U31C
# DNA 1: CAATCTGAATTCCGGTCTCCC
# DNA 2: TGGTGGCTACGACGGGATT
# B26: AGCAUAU (DNA:RNA)
# RNA: B10 RNA with U25A, G28A, C29U, G30A
# DNA 1: CAATCTGAATTCCGGTCTCCC
# DNA 2: TGGTGGCTACGACGGGATT
# B27: UCUACUG (DNA:RNA)
# RNA: B10 RNA with G26C, C27U, G28A, G30U, U31G
# DNA 1: CAATCTGAATTCCGGTCTCCC
# DNA 2: TGGTGGCTACGACGGGATT
# B28: CCGUGCG (DNA:RNA)
# RNA: B1 RNA with G25C, A26C, A30C
# DNA 1: CAATCTGAATTCCGGTCTCCC
# DNA 2: TGGTGGCTACGACGGGATT
# B29: UGACGAC (DNA:RNA)
# RNA: B1 RNA with G25U, A26G, G27A, U28C, G31C
# DNA 1: CAATCTGAATTCCGGTCTCCC
# DNA 2: TGGTGGCTACGACGGGATT
# B30: GUGCCUG (DNA:RNA)
# RNA: B1 RNA with A26U, U28C, G29C, A30U
# DNA 1: CAATCTGAATTCCGGTCTCCC
# DNA 2: TGGTGGCTACGACGGGATT
# B31: GAAAGAC (DNA:RNA)
# RNA: B1 RNA with G27A, U28A, G31C
# DNA 1: CAATCTGAATTCCGGTCTCCC
# DNA 2: TGGTGGCTACGACGGGATT
# Molecular target: T1, RBFOX1 RRM RbFoxmut (Fox-RRM*)
# Test: EMSA; HiTS-Eq, 1 nM pool, 10 min; buffer printed only for the single-RNA assays: 10 mM Tris pH 7.5, 150 mM NaCl, 3.4 mM EDTA, 0.001% NP-40, 30 C
# Conditions: tags: His6 N-terminal (pET28a); label: 5' 32P
# Procedure, shortened: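 Relative association constants, normalised to the cognate motif, were derived by comparing read counts of each RNA species with those of the control reaction. The RNA sequenced was the free fraction, separated by 8% native PAGE after a 10 min equilibration in 50 µL of 1 nM 5′-radiolabelled RNA (7 randomized nucleotides) with increasing concentrations of purified wild-type or mutant RbFox RRM.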
row,Binder,binding signal
1,B1,0.133 KA relative to UGCAUGU
2,B2,0.549 KA relative to UGCAUGU
3,B3,0.0985 KA relative to UGCAUGU
4,B4,0.0636 KA relative to UGCAUGU
5,B5,0.148 KA relative to UGCAUGU
6,B6,0.203 KA relative to UGCAUGU
7,B7,0.125 KA relative to UGCAUGU
8,B8,0.0894 KA relative to UGCAUGU
9,B9,0.122 KA relative to UGCAUGU
10,B10,0.153 KA relative to UGCAUGU
11,B11,0.0759 KA relative to UGCAUGU
12,B12,0.104 KA relative to UGCAUGU
13,B13,0.119 KA relative to UGCAUGU
14,B14,0.154 KA relative to UGCAUGU
15,B15,0.0848 KA relative to UGCAUGU
16,B16,0.118 KA relative to UGCAUGU

row,Binder,binding signal
1,B17,0.0871 KA relative to UGCAUGU
2,B18,0.0985 KA relative to UGCAUGU
3,B19,0.107 KA relative to UGCAUGU
4,B20,0.0902 KA relative to UGCAUGU
5,B21,0.113 KA relative to UGCAUGU
6,B22,0.144 KA relative to UGCAUGU
7,B23,0.0519 KA relative to UGCAUGU
8,B24,0.0958 KA relative to UGCAUGU
9,B25,0.0731 KA relative to UGCAUGU
10,B26,0.133 KA relative to UGCAUGU
11,B27,0.112 KA relative to UGCAUGU
12,B28,0.137 KA relative to UGCAUGU
13,B29,0.069 KA relative to UGCAUGU
14,B30,0.317 KA relative to UGCAUGU
15,B31,0.0496 KA relative to UGCAUGU
